The values that follow come from US4054669A, “Phenolic menthene derivatives, therapeutic composition containing same and their use as therapeutic compositions” (Les Derives Resiniques et Terpeniques, priority 1975, dated 1977).

SMILES strings stand for the structures.

This assay has as its system influenza virus, A2 Hong Kong strain. On the set-up: species or system influenza virus A2 Hong Kong (mice). The conditions noted are these: mouse, in vivo.

`CC1CC=C(c2ccc(O)c(S(=O)(=O)O)c2)C(C(C)C)C1` (stereo not shown) [LJ 2148, sodium m.menthene-phenol-2-sulfonate]: the “changes in weight and systemic condition of mice vs amantadine or cyclooctylamine” value was “more satisfactory”; the “development of viral pneumonia in infected mice” value is recorded as “prevents the development of viral pneumonia”.

Take `Cc1c(C2=CCC(C)CC2C(C)C)cc(C(C)C)c(O)c1S(=O)(=O)O` (stereo not shown) [LJ 2128, m.menthene-thymol-2-sulfonate]: the “changes in weight and systemic condition of mice vs amantadine or cyclooctylamine” value is given as “more satisfactory”; the “development of viral pneumonia in infected mice” value is recorded as “prevents the development of viral pneumonia”.
